In the supplement of paper PMC12217912:
Some of the results follow. The full chains were built here from the parent and the listed change. Inactive controls read about 0.05.

B1: TEV protease; numbered along this chain (parent)
chain: MGESLFKGPRDYNPISSSICHLTNESDGHTTSLYGIGFGPFIITNKHLFRRNNGTLVVQSLHGVFKVKDTTTLQQHLVDGRDMIIIRMPKDFPPFPQKLKFREPQREERICLVTTNFQTKSMSSMVSDTSCTFPSGDGIFWKHWIQTKDGQCGSPLVSTRDGFIVGIHSASNFTNTNNYFTSVPKNFMELLTNQEAQQWVSGWRLNADSVLWGGHKVFMVKPEEPFQPVKEATQL

Variants of: B1
Assay: raw area under fraction-flipped curve 0-4 h after induction (AUC4h, not background-subtracted), DNA-recorder readout of cleavage of the substrate (dimensionless); higher = more cleavage of the substrate by the protease variant
Details: temperature: 34 °C; time window: 0-4 h after rhamnose induction
Method: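 In vivo DNA recorder in E. coli TOP10(DE3) ΔrhaA at 34 °C. Each TEVp single-site mutant (parent TEVp 0) is paired with a single-site variant of the 7-mer TEVs (canonical ENLYFQ|S). The substrate sits between flexible linkers in a Bxb1-sfGFP-TEVs-SsrA fusion, so cleavage stabilises Bxb1 and speeds flipping of a recombination array, read by NGS. The value is the raw area under the fraction-flipped curve over 0-4 h after rhamnose induction (AUC4h), with ≥20 reads per time point. It is not background-subtracted; inactive controls average about 0.047.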
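Further: Bxb1 expression induced with 0.2% (w/v) L-rhamnose at OD600 near 0.5, cultures sampled hourly, flipped fraction per protease–substrate barcode pair counted by paired-end Illumina sequencing.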

Variant	area with substrate ENLYAQS	area with substrate ENLYCQS	area with substrate ENLYDQS	area with substrate ENLYGQS	area with substrate ENLYPQS	area with substrate ENLYQQS	area with substrate ENLYVQS	area with substrate ENLYWQS	area with substrate ENLYHQS	area with substrate ENLYIQS	area with substrate ENLYKQS	area with substrate ENLYMQS	area with substrate ENLYNQS	area with substrate ENLYTQS	area with substrate ENLYEQS	area with substrate ENLYRQS	area with substrate ENLYSQS	area with substrate ENLYLQS	area with substrate ENLYYQS
N116R	0.0613	0.075	0.0736	0.0494	0.0648	0.0803	0.134	0.0639	–	–	–	–	–	–	–	–	–	–	–
F117D	0.0839	–	–	–	0.0657	–	0.106	0.0785	0.0712	0.0942	0.0674	0.106	0.0762	0.0753	–	–	–	–	–
T119P	0.0605	–	0.0711	–	0.0985	–	–	–	0.0674	0.132	–	0.0932	–	0.0679	0.0689	–	–	–	–
S121C	0.0523	0.0916	0.068	0.0845	0.0971	0.0764	0.12	0.0744	–	0.121	0.052	0.109	0.0773	0.0984	0.061	0.0593	0.0665	–	–
S121R	0.0524	–	0.0653	0.0734	0.0858	–	–	–	0.0626	0.119	0.0545	0.0885	0.0755	–	0.0638	0.0756	0.0784	0.0948	0.0523
M122C	0.0593	–	0.0616	0.0682	0.0694	0.0592	0.115	0.0824	0.0734	0.141	0.0547	0.096	0.051	–	0.0708	0.064	–	–	–
M122D	0.0674	0.119	0.0824	0.0682	0.0783	–	0.108	0.0666	0.0595	0.137	–	0.0702	0.0813	0.0959	0.0745	0.0658	0.105	0.0738	–
S123F	0.0854	–	0.036	0.0599	0.0708	–	0.0755	0.0793	0.074	0.123	0.0487	0.101	0.0651	0.0799	0.0665	0.0593	0.0741	–	0.0618
V126L	0.0599	0.0899	0.0622	–	–	–	0.0561	–	0.059	0.127	–	–	0.0647	–	0.0635	–	0.08	–	–
S127F	0.0832	0.105	0.059	0.0414	0.0763	–	0.129	–	0.06	0.109	0.0721	0.092	0.0521	–	0.068	0.0734	–	–	0.0622
D128P	0.0821	0.149	0.0526	0.0835	0.0755	0.0823	–	–	–	–	–	0.108	0.0668	0.104	–	0.0637	–	0.0618	0.0625
T129E	0.073	–	0.0639	–	–	–	–	–	–	0.101	0.066	0.0713	–	0.0088	–	–	–	–	–
T129M	0.0531	0.0836	0.0439	0.0472	–	0.0657	–	0.0951	0.0765	0.111	0.057	0.0581	0.0545	0.0894	–	0.0566	–	–	0.0498
T129S	0.0854	–	0.0624	0.0634	0.0749	0.0699	0.0835	0.0838	0.0545	0.107	0.0661	–	0.0677	0.0916	0.0728	0.0673	0.0954	0.0748	0.082
T132H	0.0807	0.0534	–	0.0684	0.0712	–	–	0.0489	0.0549	0.1	0.054	–	0.0603	0.0877	0.0598	0.0515	0.0528	–	–
T132W	0.0648	0.0755	0.0651	–	0.0569	–	0.0718	0.0568	0.0469	0.0898	0.069	0.0687	0.0589	–	0.0532	0.0604	–	0.0703	–
F133T	0.0831	–	–	0.0838	0.0677	0.0623	0.129	0.0689	–	0.131	0.0564	–	0.055	–	0.0636	0.0694	0.0777	–	–
P134I	0.0699	–	0.0575	0.0646	0.0643	0.065	–	0.0454	0.0499	0.111	–	–	0.0626	–	0.0629	0.0638	0.0594	0.0743	0.0594
P134S	0.0794	0.0661	–	0.0582	0.0769	–	–	–	0.0663	0.1	–	0.0698	0.0527	–	0.0616	–	–	0.0764	–
S135Q	0.0679	0.0721	0.0598	–	0.0516	–	0.0708	–	0.0587	0.0627	0.0632	0.0688	0.0629	–	0.0662	0.0592	–	–	0.0662
G138C	0.0722	–	–	–	–	–	–	–	0.0893	–	0.0582	–	0.0543	–	–	–	–	–	–
I139E	0.074	–	–	0.0601	0.083	0.0571	0.102	–	0.0559	–	–	0.0715	0.0481	0.0763	0.0548	–	–	–	–
I139L	0.0787	0.0674	0.0602	0.0484	0.0654	0.0552	0.0666	0.0877	0.0718	–	0.0511	0.0772	0.0534	0.0924	0.0593	0.0617	0.0792	0.0778	0.0641
F140D	0.0648	–	–	–	0.0675	–	–	0.0622	–	0.0617	0.0628	0.0535	–	–	0.0556	–	–	–	–
F140H	0.0672	–	0.0649	0.0427	0.0582	–	0.0726	–	0.0537	0.0786	0.0809	–	0.0617	–	0.054	–	–	0.0712	0.0691
K142C	0.0746	–	–	0.0628	0.0773	–	–	0.0611	–	0.0918	0.0587	0.079	0.0933	0.123	0.0649	0.0626	0.0668	–	0.065
K142Q	0.0762	–	0.0621	–	–	0.0834	0.134	0.0873	0.0692	0.111	0.0589	0.0643	–	–	0.0608	0.0544	0.0707	–	0.0568
H143M	0.0723	0.0626	0.0657	0.0607	–	0.0481	0.0997	–	0.0662	0.0862	0.0541	0.0715	0.0701	0.0668	0.0594	0.0581	–	0.071	0.0419
